Structures are written as SMILES. In all, about 110,000 compounds were measured (“z-score”: median about -0.1, highest 2% from about 2 on). The list shows a part of the results. Calls of active or inactive are those of the source.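 How the source made its calls: active means z-score in the third read window above 3 or below -3; inactive means the rest.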

This assay deals with Metabotropic glutamate receptor 8 (Rattus norvegicus) (UniProt P70579). Kind of assay: mGluR8 Gi/Go-coupled signaling modulation – cell-based, rat, thallium flux, HTS, primary screen (AID 488969). The settings on record: HEK293 rat mGluR8, GIRK (G protein-gated inwardly rectifying potassium channel) thallium flux, FluoZin2; at 10 µM; stronger effect = higher value; submaximal glutamate (EC20) added with thallium.
Chain of UniProt P70579 (P70579 whole entry, looked up): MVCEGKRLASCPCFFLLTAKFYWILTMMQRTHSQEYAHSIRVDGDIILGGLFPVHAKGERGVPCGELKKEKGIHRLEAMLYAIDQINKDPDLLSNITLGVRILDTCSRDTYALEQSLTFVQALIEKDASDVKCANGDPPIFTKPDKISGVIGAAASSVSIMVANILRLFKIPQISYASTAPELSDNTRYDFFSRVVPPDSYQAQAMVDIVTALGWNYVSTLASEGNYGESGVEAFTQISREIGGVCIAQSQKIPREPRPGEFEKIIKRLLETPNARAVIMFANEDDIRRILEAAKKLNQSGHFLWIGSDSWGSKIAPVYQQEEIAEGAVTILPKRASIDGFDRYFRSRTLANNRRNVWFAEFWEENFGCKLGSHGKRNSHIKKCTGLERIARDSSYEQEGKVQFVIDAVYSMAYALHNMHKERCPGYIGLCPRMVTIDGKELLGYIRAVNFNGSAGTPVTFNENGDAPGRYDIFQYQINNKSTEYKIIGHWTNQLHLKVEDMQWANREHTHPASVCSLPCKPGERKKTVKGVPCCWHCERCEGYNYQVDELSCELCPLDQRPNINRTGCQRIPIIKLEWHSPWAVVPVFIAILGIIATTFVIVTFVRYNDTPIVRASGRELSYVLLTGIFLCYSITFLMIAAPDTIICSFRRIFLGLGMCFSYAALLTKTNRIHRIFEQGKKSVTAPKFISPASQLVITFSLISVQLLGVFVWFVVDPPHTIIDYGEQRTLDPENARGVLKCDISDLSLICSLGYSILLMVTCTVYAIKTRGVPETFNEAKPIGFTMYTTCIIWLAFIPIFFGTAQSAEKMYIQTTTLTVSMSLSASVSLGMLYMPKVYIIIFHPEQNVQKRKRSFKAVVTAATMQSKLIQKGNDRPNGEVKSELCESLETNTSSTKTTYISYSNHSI
On to `Cc1ccc(Cn2c(SCC(N)=O)nc3c2c(=O)n(C)c(=O)n3C)cc1`, for which the z-score is -0.328.
The compound `CCn1nnnc1SCC(=O)c1ccc2c(c1)OCCO2` came in with a z-score of -0.178.
With `O=C(O)CN1CCCC1=Nc1ccccc1` the figure was 0.264; with `Nc1ccccc1C(=O)Nc1cccc(C(=O)O)c1`, 0.0345.
With `C=CCNC(=S)Nc1nc2c(cc1C(=O)OCC)CCCC2` the figure was active: 7.76.
As to `COc1cccc(Cn2nnc(C(=O)Nc3cc(C)ccc3OC)c2N)c1`, the z-score stood at 0.346.
Under `CS(=O)(=O)N(CC(=O)N1CCN(c2ccccc2F)CC1)C1CCCCC1` stands -0.161; under `Cc1ccc(-c2ccc(/C=N/NC(=S)Nc3ccccc3)o2)cc1[N+](=O)[O-]`, 0.442.
Regarding `Cc1ccc(C2SCCN2C(=O)c2ccc([N+](=O)[O-])cc2)cc1` (configuration not stated), the z-score was -0.218.
With `CCCCn1cnc2cc(NCc3ccncc3)ccc21` the figure was 0.202; with `COC(=O)c1ccccc1CON1C(=O)C(C)(C)N(OCc2ccccc2C(=O)OC)C(=O)C1(C)C`, -0.348.
With `CC1CCN(c2c([N+](=O)[O-])c(=O)n(-c3ccccc3)c3ccccc23)CC1` the figure was 0.00884; with `Clc1cccc(Cl)c1Cn1cnc2c(NCc3ccco3)ncnc21`, -0.832; with `Cc1cccc(C)c1NC(=O)N1CCC(n2c(=O)[nH]c3ccccc32)CC1`, -0.23.
Under `COCC(C)NCc1ccc(C)cc1C` (configuration not stated) stands 0.0777; under `COc1ccc(C)cc1NC(=O)C(Sc1nnc(Nc2ccccc2F)s1)c1ccccc1` (configuration not stated), 0.0396; under `CC(=O)Nc1ccc(SCC(=O)Nc2ccccc2-c2ccccc2)cc1`, -0.153.
The compound `CC(=O)c1cccc(NC(=O)CN(Cc2ccccc2)S(C)(=O)=O)c1` yielded a z-score of 0.318.
With `CCCCOc1cccc(NC(=O)CSc2nccn2C)c1` the figure was -0.276; with `COc1cc2c(cc1OC)C1=C(C#N)CCC(=NC(=O)c3ccc(Cl)cc3)N1CC2`, -0.8.
With `COc1cc(C2NC(=S)NC3=C2CCc2ccccc23)cc(OC)c1OC` (configuration not stated) the figure was -0.0137; with `COc1ccccc1NC(=O)CC(NC1CCCCC1)C(=O)O` (configuration not stated), -0.177; with `Cc1ccc(S(=O)(=O)/N=C(\N)Nc2nc(C)c3ccc(C)cc3n2)cc1`, -0.382.
For `Nn1c(Cc2cccc3ccccc23)nnc1SCC(=O)N1CC(=O)Nc2ccccc21`, the z-score is -0.0641.
With `CCc1ccc(OCC(=O)NC(NC(=S)Nc2ccccc2C)C(Cl)(Cl)Cl)cc1` (configuration not stated), the z-score is -0.175.
For the compound `CCOC(=O)c1ccccc1NC(=O)COC`, the z-score was -0.129.
Under `O=C(O)c1ccc(-n2nnnc2SCc2ccccc2)cc1` stands 0.283; under `O=C(Cn1cnc2c(nnn2Cc2ccc(F)cc2)c1=O)NCc1ccc2c(c1)OCO2`, 0.623; under `O=C(O)Cc1csc(Nc2cccc(Cl)c2)n1`, 0.819.
Under `O=C(C1CCCN(CCCc2ccccc2)C1)N1CCCCC1` (configuration not stated) stands -0.0624; under `O=C(NC(=S)Nc1ccc2oc(-c3cccnc3)nc2c1)c1cccc(Cl)c1`, 1.66; under `COCCn1c(-c2ccccc2)cnc1SCC(=O)Nc1cccc2ccccc12`, 0.0344.
The compound `COc1ccc(OC)c(S(=O)(=O)NCc2csc(-c3ccccc3)n2)c1` had a z-score of -0.245.
Under `CCOC(=O)c1ccc(S(=O)(=O)N2CCN(CC3CC=CCC3)CC2)cc1` (configuration not stated) stands -0.563.
Under `Cn1c(SCC(=O)Nc2nc3ccccc3s2)nnc1-c1ccccc1` stands -0.0271; under `COc1cc(Cl)cc2c1Sc1ccccc1/C2=C/CCN(C)C`, active: 3.63.
As to `Cc1[nH]n2c(=O)cc(C(C)(C)C)nc2c1-c1ccccc1`, the z-score is active: 4.43.
Take `CCOC(=O)Cn1nc(/C=C/c2ccc(OC)cc2)ccc1=O`: the z-score was 0.115.
With `Cc1ccc2c(c1)N(Cc1ccc3c(c1)OCO3)C(=O)C(C)O2` (configuration not stated) the figure was -0.813; with `Cc1cc(C)n(-c2nc3ccccc3nc2NCCc2ccccc2)n1`, -0.16; with `CC(NC(=O)C1CCCN(S(=O)(=O)c2cccc3nonc23)C1)c1ccccc1` (configuration not stated), -0.69.
Under `COc1ccccc1C(=O)N(Cc1cccs1)C1CCS(=O)(=O)C1` (configuration not stated) stands 0.129; under `Cc1ccccc1/C=C/c1nc2ccccc2c(=O)n1Cc1ccccc1`, 0.365; under `O=C(/C=C/c1ccco1)NC(=S)Nc1cccc(-c2nc3ccccc3s2)c1`, -0.266.
Under `Cc1ccc(C(=O)n2c(=S)nc3ccccn32)cc1` stands 0.0286; under `O=S(=O)(c1ccc(N2CCCC2)cc1)C(F)(F)F`, -0.33.
On to `CC(C)(C)N(Cc1ccccc1)C(=O)CSc1nnc(CNc2ccc(F)cc2)o1`, for which the z-score is -0.349.
Under `CC(C)C(=O)Nc1ccc(-c2nc3cccnc3o2)cc1` stands 1.38.
With `O=C(Nc1cc(C(F)(F)F)ccc1N1CCOCC1)c1cccs1` the figure was 1.15; with `O=[N+]([O-])c1ccc(O)c(-c2nn[nH]n2)c1`, -0.127.
As to `Cc1ccc(-n2nnnc2C(Cl)(Cl)c2nnnn2-c2ccc(C)cc2)cc1`, the z-score was -0.111.
Under `CC(=O)NS(=O)(=O)c1cccnc1Nc1ccc(Cl)c(Cl)c1` stands -0.949.
With `O=C1CCCC2=C1C(c1ccc(OS(=O)(=O)c3ccc(Cl)cc3)cc1)C1=C(CCCC1=O)O2` the figure was -0.213; with `CCOc1ccccc1Oc1coc2cc(OC)ccc2c1=O`, -0.0933.
With `NS(=O)(=O)c1ccc(NC(=O)CSc2nc3ccccc3n2-c2ccccc2)cc1` the figure was -0.079.
Regarding `NC(=O)c1cccnc1Nc1ccccc1Cl`, the z-score is -0.423.
In turn, `CCCCOc1cccc(OCCCC)c1C(=O)Nc1cc(C)on1` had a z-score of -1.2.
With `O=C(COC(=O)c1ccccc1Nc1ccccc1)Nc1ccccc1` the figure was -0.35.
`CCSc1nnc(NC(=O)CCc2ccc(OC)cc2)s1` registered a z-score of -0.237.
`CN(C)S(=O)(=O)c1ccc(C(=O)Nc2ccc(OCC(=O)N3CCOCC3)cc2)cc1`: the z-score was found to be 0.207.
Consider `CN(C)c1ccc(CNC2CC(C)(C)NC(C)(C)C2)cc1`, for which the z-score worked out at 1.82.
Consider `C=CCSc1nc2sc3c(c2c(=O)n1CC)CCc1ccccc1-3`, for which the z-score was 2.62.
For `COc1ccccc1NC(=O)Cn1nnc(-c2ccccc2NC(=O)c2ccco2)n1`, the z-score is -0.495.
With `Cc1ccc(SC(CC(=O)c2ccc(C)cc2)C(=O)O)cc1` (configuration not stated) the figure was -0.0628; with `COC(=O)C(C)(C(=O)OC)c1ccccc1[N+](=O)[O-]`, -0.103; with `O=C(Nc1ncc(S(=O)(=O)c2ccc([N+](=O)[O-])cc2)s1)c1ccc2ccccc2c1`, -0.2.
In turn, `COc1ccc(C(=O)Nc2ccccc2C(=O)NC(Cc2ccc(O)cc2)C(=O)NNC(=O)c2ccc(C)cc2)cc1` (configuration not stated) came in with a z-score of -0.296.
In the case of `Cc1cc([N+](=O)[O-])ccc1NCc1cccc([N+](=O)[O-])c1`, the z-score came out at 0.367.
The compound `CCCCn1c(SCC(=O)Nc2cc(C)on2)nc2c1c(=O)n(C)c(=O)n2C` showed a z-score of -0.247.
Under `OC(CNCc1ccc(F)cc1)(c1ccc(F)cc1)c1ccc(F)cc1` stands 0.187.
For the compound `Nc1c(-c2ccc(Cl)cc2)cnc2ncnn12`, the z-score is -0.169.
Under `O=C(OCCN1CCCCC1)c1ccc(O)cc1` stands -0.24; under `CCCCNc1c2c(nc3c(-c4ccccc4)c(C)nn13)CCC2`, -0.294; under `COC(=O)CCCC(=O)Nc1c(F)c(F)c(F)c(F)c1F`, 0.502.
Under `CC(=O)c1c(C)n(-c2ccc(N(C)C)cc2)c2ccc(OCC(N)=O)cc12` stands -0.403.
Under `COc1ccc(CC(=O)NC2CCN(CC(=O)N3CCCc4ccccc43)CC2)cc1OC` stands -0.139.
On to `COC(=O)CSc1ccc2nnc(-c3ccc(OC)c(OC)c3)n2n1`, for which the z-score was 0.916.
With `Cc1ccc(O)c(C(=O)c2cnn(C(=O)COc3ccc(Cl)cc3)c2)c1` the figure was -1.38.
For `CCCNC(=O)c1ccc2snnc2c1`, the z-score was -0.277.
With `Cc1ccc2c(Cl)c(C)c(N3CCCCC3)nc2n1` the figure was -0.583.
The compound `CCOC(=O)Cc1cc(=O)n2[nH]c(-c3ccccc3)cc2n1` had a z-score of -0.109.
Under `Cc1cc(/C=C(/C#N)C(=O)Nc2ccccc2)c(C)n1-c1cccnc1` stands 0.0336; under `COc1ccc(NC(=O)c2cncc(Br)c2)cc1S(=O)(=O)N1CCCCC1`, 0.355.
`CCCNNC(=O)C(O)(c1cccc(C)c1)c1cccc(C)c1` came in with a z-score of -0.586.
Under `Cc1cc2cc(C(c3nnnn3C3CCCC3)N(Cc3cccnc3)Cc3ccco3)c(=O)[nH]c2cc1C` (configuration not stated) stands -0.172; under `CCN(CC)c1ccc(NC(=O)CSc2nnc3nc(C)cc(C)n23)cc1`, -0.0111; under `CCCC(=O)Nc1ccc(C(=O)N2CCCC2)cc1`, -0.0906.
Under `COc1ccccc1C1C(C#N)=C(N)N(c2cccnc2)C2=C1C(=O)CC(C)(C)C2` (configuration not stated) stands -0.017.
With `Nc1nnn(CC(=O)N/N=C/c2cccc3ccccc23)n1` the figure was -0.0446; with `c1coc(Cn2nnnc2CN2CCN(C3CCCC3)CC2)c1`, 0.325; with `CCOC(=O)c1oc2ccccc2c1NC(=O)c1cccc(OC)c1OC`, -0.439.
On to `CN(C)Cc1nc2c(c(=O)[nH]1)C(C)(C)Cc1ccccc1-2`, for which the z-score worked out at 0.00689.
Regarding `COc1ccc(C(=O)/C=C/Nc2ccccn2)cc1`, the z-score is -0.371.
With `CCn1c(/C=C/c2cccc([N+](=O)[O-])c2)nc2ccccc2c1=O` the figure was 0.0273; with `CCCNS(=O)(=O)c1ccc(OCC(=O)N2CCC(C(=O)OCC)CC2)cc1`, 0.232; with `Cc1ccc(Nc2ccc(C(=O)NCCc3ccccc3)cn2)cc1`, -0.106.
Regarding `Cc1ccc(C(=O)n2cnnc2N)cc1C`, the z-score was determined as 0.229.
As for `S=C(NCc1cccnc1)Nc1ccc(Cl)c(Cl)c1`, the z-score came to 0.672.
Consider `NC(=O)C1CCN(C(=O)c2ccc(Oc3ccccc3)cc2)CC1`, for which the z-score is 0.0261.
Under `Cc1ccc(NC(=O)c2oc3c(c2C)C(=O)CC(C)(C)C3)cc1` stands 0.407; under `O=C(COC(=O)c1ccccn1)NC1CCCCC1`, 0.138; under `Cc1ccc2cc(COC(=O)C3CCCO3)c(=O)[nH]c2c1` (configuration not stated), 1.12.
With `Cc1nonc1NC(=O)c1ccc(Cl)c(S(=O)(=O)N2CCCCC2)c1` the figure was -0.44; with `C=CCn1c(SCc2c(C(=O)OC)sc(N)c2C(=O)OC)nnc1-c1ccc(Br)cc1`, -0.395; with `Cn1c(NC(=O)c2ccc3c(c2)OCO3)cc(=O)n(C)c1=O`, -0.265.
With `O=C(CSCc1c(Cl)cccc1Cl)NCc1ccco1` the figure was -0.132; with `O=CNNC(=O)c1cccc([N+](=O)[O-])c1`, -0.102.
The compound `O=C(Cn1c(-c2ccc(Cl)cc2)noc1=O)N1CCN(c2ccccc2F)CC1` yielded a z-score of -0.926.
With `CC(/C=C/c1ccco1)=N\NC(=O)C(O)c1ccccc1` (configuration not stated) the figure was -0.055; with `c1ccc2c(c1)OCC(c1csc3ncnc(N4CCOCC4)c13)O2` (configuration not stated), -0.316.
`Cc1ccc(-c2nn(-c3ccccc3)cc2C=C2C(=O)CC(C)(C)CC2=O)cc1`: the z-score is -0.154.
The compound `Cc1ccc(-c2nc(CS(=O)(=O)CC(=O)NCCCN3CCN(C)CC3)c(C)o2)cc1` showed a z-score of -0.341.

Values taken from PubChem BioAssay AID488969 (Vanderbilt High Throughput Screening Facility, 2010).
